Experimental findings from PubChem BioAssay AID434955 (Southern Research Specialized Biocontainment Screening …, 2010) are described below.

Some of the results follow. These are further read-outs of the screen, such as a control signal, another cell line or another target. No call is given for them. The list favours compounds with an active or inconclusive main result.

This assay is described as follows: beta-lactam sensitization of Mtb H37Rv, H37Rv (AID 434955).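 Also: growth measured after seven days incubation then overnight dye step; 0% = bacteria only wells and 100% = bacteria with antibiotic.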 The note with it: M. tuberculosis H37Rv growth with meropenem, percent inhibition; measured here: primary screen without meropenem; at 25 µM.
Take `CC(=O)Nc1ccc(S(=O)(=O)N2CCN(Cc3csc(C)n3)CC2)cc1`: the inhibition is -13%.

For the compound `C[C@]12CCC3[C@@H](CC[C@H]4C[C@@H](O)CC[C@]34C)C1CCC2=O` (stereo partly drawn), the inhibition was found to be 4.67%.

For `COc1ccc(-c2cc(=Nc3ccc(C)cc3)c3ccccc3o2)cc1`, the inhibition was 18.3%.

In the case of `COc1ccc(OC)c(CCNC(=O)CN2C(=O)CC(C)(C)S(=O)(=O)c3ccccc32)c1`, the inhibition was -6.35%.

Turning to `Cc1cc(C(=O)NCC(=O)Nc2c(C)cccc2C)c(C)o1`, the inhibition is -0.88%.

With `COc1cccc(N(CC(=O)NC2CCCC2)C(=O)Cn2nnc(-c3ccc(C)cc3)n2)c1`, the inhibition is -0.34%.

`CCn1cc(CN2CCC(C(=O)Nc3ccc(Oc4cccnc4)cc3)CC2)cn1`: the inhibition was 3.57%.

Regarding `CCCS(=O)(=O)c1c(S(=O)(=O)CCC)c2cc(CC)ccn2c1C(=O)OC`, the inhibition is -5.76%.

Take `Nc1c(C(=O)NC23CC4CC(CC(C4)C2)C3)sc2nc3c(c(C(F)(F)F)c12)CCC3`: the inhibition came to 2.07%.

In the case of `COc1ccccc1NC(=O)COc1ccc(CO)cc1Cl`, the inhibition was 29.4%.

For `COc1cccc(N(CC(=O)NC2CCCCCC2)S(=O)(=O)c2ccccc2)c1`, the inhibition stood at 1.36%.

As to `COC(=O)c1ccc2c(=O)n(CCCCCC(=O)NCc3ccccn3)c(=O)[nH]c2c1`, the inhibition was -6.7%.

For the compound `CCOc1ccc(C2CC(c3ccccc3C)n3nc(N)nc3N2)cc1` (stereo not drawn), the inhibition was -1.3%.

As for `CN1N=C(C(=O)N2CCCC(Nc3ccc(F)c(F)c3)C2)CCC1=O` (stereo not drawn), the inhibition is 7.4%.

Consider `C/C(=C\c1ccccc1F)C1Nc2cccc3cccc(c23)N1`, for which the inhibition turned out to be 56.4%.

Regarding `Cn1c(=S)[nH]c2sc3c(c2c1=O)CCC(C(C)(C)C)C3` (stereo not drawn), the inhibition is 36.4%.

On to `O=C(c1nc2ccc(Cl)cn2c1CN1CCC(CO)CC1)N1CCc2ccccc2C1`, for which the inhibition was -6.53%.

In the case of `Cc1ccc(NC(=O)NC2CCCCC2)cc1Cl`, the inhibition is 98.8%.

As for `Cc1cc2ccccn2c1C(=O)c1ccc([N+](=O)[O-])o1`, the inhibition worked out at 26.2%.

Regarding `CCCCN(CCCC)C(=S)N/N=C/c1c(C)[nH]n(-c2ccccc2)c1=O`, the inhibition amounted to 25.9%.

Regarding `Cc1ccc(NC(=O)CCN2C(=O)C3C4CCC(C4)C3C2=O)cc1[N+](=O)[O-]` (stereo not drawn), the inhibition was determined as 74.6%.

Consider `CCN(CC)S(=O)(=O)c1ccc(Cl)c(NC(=O)COc2ccc3c(C)cc(=O)oc3c2)c1`, for which the inhibition stood at 8.94%.

Turning to `COc1ccc(C2=Nn3c(nnc3-c3ccncc3)SC2)cc1OC`, the inhibition stood at 1.16%.

Consider `O=C(Nc1nnc(-c2ccc3c(c2)OCCO3)o1)C1CCCCC1`, for which the inhibition amounted to 39.1%.

As for `CCN(CC(=O)Nc1ccc2c(c1)OCCO2)C(=O)c1ccc([N+](=O)[O-])s1`, the inhibition was 26.3%.

Regarding `Cc1cc(Br)ccc1NC(=O)c1ccccc1-c1ccccc1`, the inhibition was determined as 32.9%.

On to `COc1ccc(NC(=O)CN2CCN(C3c4ccccc4-c4ccccc43)CC2)c(OC)c1`, for which the inhibition came to 35.8%.

With `CCCn1c(-c2ccc(OC)cc2)nc2ccccc21`, the inhibition is -11.4%.

By inhibition is commonly meant the drop in the measured response relative to a control, in per cent.
